The other results are listed elsewhere or left out. At the low end of the ranking the order means little.
The sequences below were run against GST-SBP-SLBP (stem-loop binding protein) (UniProt Q14493) (assay: targeted RNA Bind-n-Seq). Details: RBNS binding buffer: 25 mM Tris pH 7.5, 150 mM KCl, 3 mM MgCl2, 0.1% Tween, 0.5 mg/mL BSA, 1 mM DTT; 27 nM protein, 750 pM RNA pool; temperature not stated; high values mean tight binding.
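Also: DESeq read counts versus GST-SBP nonspecific binding control pulldown.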

Sequence	binding signal (log2 fold change)
GGUCACGUCUCAAUCAACUCAUCUUCCAGGGAAAUCCCUGGUAAACUCAACAGCUCGCAGUCAAG	0.0742
GGUCACGUCUCAAUCAACUCAUUCCCCAGGGAAACCCCUGGUAAUCUCAACAGCUCGCAGUCAAG	-0.072
GGUCACGUCUCAAUCAACUCAUCCUCCAGGGAAAUCCCUGGUUAUCUCAACAGCUCGCAGUCAAG	-0.0604
GGUCACGUCUCAAUCAACUCAAUGGAGGGGGGGAAAACCCCUUUACCCUCACUAUCAACAGCUCGCAGUCAAG	-0.0826
GGUCACGUCUCAAUCAACUCUUUCCCAGGAGUUUUCUCCUGCAAUUUCAACAGCUCGCAGUCAAG	-0.118
GGUCACGUCUCAAUCAACUCUUCCCCCAGGGAAAGCCCUGGCUUAUUCAACAGCUCGCAGUCAAG	-0.115
GGUCACGUCUCAAUCAACUCAUCUCCAGGAGUUUUCUCCUGUAUUCUCAACAGCUCGCAGUCAAG	0.161
GGUCACGUCUCAAUCAACUCUACGCCAGGAGUUUUCUCCUGUUAUCUCAACAGCUCGCAGUCAAG	-0.151
GGUCACGUCUCAAUCAACUCUUCUCCCAGGGAAACCCCUGGCUUAUUCAACAGCUCGCAGUCAAG	-0.256
GGUCACGUCUCAAUCAACUCAUCUCCCAGGGAAAGCCCUGGUAAAUUCAACAGCUCGCAGUCAAG	-0.107
GGUCACGUCUCAAUCAACUCAUCUCCAGGAGUUUCCUCCUGCUAACUCAACAGCUCGCAGUCAAG	0.133
GGUCACGUCUCAAUCAACUCAGUCCCCAGGGAAAUCCCUGGUAUAUUCAACAGCUCGCAGUCAAG	-0.00212
GGUCACGUCUCAAUCAACUCUCCCGAGGGGGGGAAAACCCCUUUACCCUCAUCUUCAACAGCUCGCAGUCAAG	-0.256
GGUCACGUCUCAAUCAACUCAACUGAGGGGGGGAAAACCCCUUUACCCUCCACAUCAACAGCUCGCAGUCAAG	0.388
GGUCACGUCUCAAUCAACUCCCAAGAGGGGGGGAAAACCCCUUUACCCUCGUAAUCAACAGCUCGCAGUCAAG	0.444
GGUCACGUCUCAAUCAACUCUCAAGAGGGGGGGAAAACCCCUUUGCCCUCGUCAUCAACAGCUCGCAGUCAAG	-0.143
GGUCACGUCUCAAUCAACUCUCUGGAGGGGGGGAAAACCCCUUUACCCUCAAUUUCAACAGCUCGCAGUCAAG	-0.116
GGUCACGUCUCAAUCAACUCAAUUUCAGGAGUUUCCUCCUGCAUUUUCAACAGCUCGCAGUCAAG	-0.000916
GGUCACGUCUCAAUCAACUCUACUUCCAGGGAAAGCCCUGGCAUUUUCAACAGCUCGCAGUCAAG	0.231
GGUCACGUCUCAAUCAACUCAUUCUCCAGGGAAAGCCCUGGUUAACUCAACAGCUCGCAGUCAAG	0.072
GGUCACGUCUCAAUCAACUCUUUUUCCAGGGAAAUCCCUGGUAUACUCAACAGCUCGCAGUCAAG	-0.22
GGUCACGUCUCAAUCAACUCAUUUUCAGGAGUUUACUCCUGCAUACUCAACAGCUCGCAGUCAAG	-0.0653
GGUCACGUCUCAAUCAACUCUUUUCCAGGAGUUUUCUCCUGUAUACUCAACAGCUCGCAGUCAAG	-0.12
GGUCACGUCUCAAUCAACUCUUUAGAGGGGGGGAAAACCCCUUUGCCCUCCAACUCAACAGCUCGCAGUCAAG	-0.302
GGUCACGUCUCAAUCAACUCAAUUUCCAGGGAAAGCCCUGGCAUAUUCAACAGCUCGCAGUCAAG	-0.0217

Sequence	binding signal (log2 fold change)
GGUCACGUCUCAAUCAACUCAACUUCCAGGGAAAGCCCUGGCAAACUCAACAGCUCGCAGUCAAG	-0.109
GGUCACGUCUCAAUCAACUCUAAAGAGGGGGGGAAAACCCCUUUACCCUCCUACUCAACAGCUCGCAGUCAAG	0.315
GGUCACGUCUCAAUCAACUCAACUCCAGGAGUUUUCUCCUGCUUAUUCAACAGCUCGCAGUCAAG	0.0147
GGUCACGUCUCAAUCAACUCAUACGAGGGGGGGAAAACCCCUUUGCCCUCAAUUUCAACAGCUCGCAGUCAAG	-0.243
GGUCACGUCUCAAUCAACUCUUCCCCAGGAGUUUUCUCCUGCAAUCUCAACAGCUCGCAGUCAAG	0.084
GGUCACGUCUCAAUCAACUCAUUCUCCAGGGAAAUCCCUGGUAUAUUCAACAGCUCGCAGUCAAG	0.269
GGUCACGUCUCAAUCAACUCUAUCUCCAGGGAAACCCCUGGCAUACUCAACAGCUCGCAGUCAAG	0.0461
GGUCACGUCUCAAUCAACUCAUCGUCAGGAGUUUCCUCCUGCAAUCUCAACAGCUCGCAGUCAAG	0.058
GGUCACGUCUCAAUCAACUCUAUGUCCAGGGAAAGCCCUGGUUUUUUCAACAGCUCGCAGUCAAG	-0.186
GGUCACGUCUCAAUCAACUCAUCGCCCAGGGAAAACCCUGGUAUAUUCAACAGCUCGCAGUCAAG	-0.314
GGUCACGUCUCAAUCAACUCUUCCUCAGGAGUUUUCUCCUGUAAACUCAACAGCUCGCAGUCAAG	-0.0693
GGUCACGUCUCAAUCAACUCAGUCUCAGGAGUUUUCUCCUGUAAAUUCAACAGCUCGCAGUCAAG	-0.149
GGUCACGUCUCAAUCAACUCAAGUCCAGGAGUUUUCUCCUGUAAUUUCAACAGCUCGCAGUCAAG	-0.0131
GGUCACGUCUCAAUCAACUCUUCCUCAGGAGUUUUCUCCUGCUUAUUCAACAGCUCGCAGUCAAG	-0.0206
GGUCACGUCUCAAUCAACUCAUUUCCCAGGGAAAGCCCUGGUUAUCUCAACAGCUCGCAGUCAAG	0.0545
GGUCACGUCUCAAUCAACUCAUCGUCAGGAGUUUGCUCCUGUAUUUUCAACAGCUCGCAGUCAAG	0.0128
GGUCACGUCUCAAUCAACUCCAUCGAGGGGGGGAAAACCCCUUUACCCUCAUCUUCAACAGCUCGCAGUCAAG	-0.0167
GGUCACGUCUCAAUCAACUCUACUCCCAGGGAAACCCCUGGCAUACUCAACAGCUCGCAGUCAAG	-0.00558
GGUCACGUCUCAAUCAACUCAUGUCCCAGGGAAACCCCUGGUUUUUUCAACAGCUCGCAGUCAAG	-0.234
GGUCACGUCUCAAUCAACUCAGUUCCAGGAGUUUUCUCCUGCUUUUUCAACAGCUCGCAGUCAAG	0.00165
GGUCACGUCUCAAUCAACUCUUCUUCCAGGGAAAGCCCUGGCUAUUUCAACAGCUCGCAGUCAAG	0.333
GGUCACGUCUCAAUCAACUCAAUCUCCAGGGAAACCCCUGGCUAUCUCAACAGCUCGCAGUCAAG	0.112
GGUCACGUCUCAAUCAACUCAUCCUCAGGAGUUUCCUCCUGUAUACUCAACAGCUCGCAGUCAAG	0.262
GGUCACGUCUCAAUCAACUCAACUCCCAGGGAAACCCCUGGUAAACUCAACAGCUCGCAGUCAAG	-0.121
GGUCACGUCUCAAUCAACUCUUUCGCAGGAGUUUUCUCCUGGUUUCUCAACAGCUCGCAGUCAAG	0.182

Sequence	binding signal (log2 fold change)
GGUCACGUCUCAAUCAACUCAAUCUCCAGGGAAACCCCUGGCAAUUUCAACAGCUCGCAGUCAAG	0.00699
GGUCACGUCUCAAUCAACUCUACUCCCAGGGAAAGCCCUGGCAUUUUCAACAGCUCGCAGUCAAG	0.0833
GGUCACGUCUCAAUCAACUCUCACGAGGGGGGGAAAACCCCUUUACCCUCUUAUUCAACAGCUCGCAGUCAAG	0.196
GGUCACGUCUCAAUCAACUCAAGUCCCAGGGAAAUCCCUGGUUAAUUCAACAGCUCGCAGUCAAG	-0.392
GGUCACGUCUCAAUCAACUCAACUUCAGGAGUUUACUCCUGUUUAUUCAACAGCUCGCAGUCAAG	-0.138
GGUCACGUCUCAAUCAACUCUAUUCCCAGGGAAAUCCCUGGCAUUCUCAACAGCUCGCAGUCAAG	-0.0783
GGUCACGUCUCAAUCAACUCAAUUUCAGGAGUUUUCUCCUGUUAACUCAACAGCUCGCAGUCAAG	0.208
GGUCACGUCUCAAUCAACUCUACUUCCAGGGAAAACCCUGGUAUUUUCAACAGCUCGCAGUCAAG	-0.228
GGUCACGUCUCAAUCAACUCCUUAGAGGGGGGGAAAACCCCUUUACCCUCACAAUCAACAGCUCGCAGUCAAG	0.216
GGUCACGUCUCAAUCAACUCUAUUCCAGGAGUUUACUCCUGUUAACUCAACAGCUCGCAGUCAAG	0.0473
GGUCACGUCUCAAUCAACUCAUCUCCAGGAGUUUUCUCCUGCAAAUUCAACAGCUCGCAGUCAAG	0.103
GGUCACGUCUCAAUCAACUCUAUCUCAGGAGUUUACUCCUGCUAUCUCAACAGCUCGCAGUCAAG	0.227
GGUCACGUCUCAAUCAACUCUUCUCCAGGAGUUUACUCCUGCUUAUUCAACAGCUCGCAGUCAAG	-0.182
GGUCACGUCUCAAUCAACUCACUAGAGGGGGGGAAAACCCCUUUACCCUCAUAUUCAACAGCUCGCAGUCAAG	-0.033
GGUCACGUCUCAAUCAACUCUUUUUCCAGGGAAAUCCCUGGCGUUUUCAACAGCUCGCAGUCAAG	0.172
GGUCACGUCUCAAUCAACUCCUACGAGGGGGGGAAAACCCCUUUACCCUCUCAAUCAACAGCUCGCAGUCAAG	-0.429
GGUCACGUCUCAAUCAACUCUACGCCAGGAGUUUUCUCCUGUUUAUUCAACAGCUCGCAGUCAAG	0.267
GGUCACGUCUCAAUCAACUCUUCUUCAGGAGUUUACUCCUGUUUUUUCAACAGCUCGCAGUCAAG	-0.197
GGUCACGUCUCAAUCAACUCUUCCCCCAGGGAAAACCCUGGCAAUCUCAACAGCUCGCAGUCAAG	0.035
GGUCACGUCUCAAUCAACUCAUUCGAGGGGGGGAAAACCCCUUUGCCCUCAUUCUCAACAGCUCGCAGUCAAG	0.195
GGUCACGUCUCAAUCAACUCUAUUUCAGGAGUUUUCUCCUGUAUUUUCAACAGCUCGCAGUCAAG	-0.0406
GGUCACGUCUCAAUCAACUCUAUUUCCAGGGAAACCCCUGGCAUACUCAACAGCUCGCAGUCAAG	-0.0479
GGUCACGUCUCAAUCAACUCCCUCGAGGGGGGGAAAACCCCUUUACCCUCAUCAUCAACAGCUCGCAGUCAAG	0.187
GGUCACGUCUCAAUCAACUCAUCUCCCAGGGAAACCCCUGGCUUACUCAACAGCUCGCAGUCAAG	0.169

— publication PMC5892938
